Among the data in PubChem BioAssay AID1745853 (National Center for Advancing Translational Sciences (NCATS), 2022) are activity change, negative = inhibition values, retold here.

Molecules are shown by their SMILES. The list shows a part of the results. Further columns of the screen follow, without active or inactive calls.

Holding throughout (experiment): Primary Screen for Target Class Profiling of Small Molecule Inhibitors of Methyltransferases
For test [1], the target named is Glycine N-methyltransferase (Homo sapiens) (UniProt Q14749). The settings on record: purified enzyme, MTase-Glo SAH luminescence; measured here: GNMT inhibition; at 40 µM; stronger effect = lower value. Summed up: (§1)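 Each enzyme was reacted with SAM and its substrate, with compounds tested once at 40 uM; SAH formed was read by MTase-Glo luminescence.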
Test [2] deals with Guanidinoacetate N-methyltransferase (Homo sapiens) (UniProt Q14353). The settings on record: purified enzyme, MTase-Glo SAH luminescence; measured here: GAMT inhibition; at 40 µM; stronger effect = lower value. Put shortly:
as §1

In test [3] the target is Histamine N-methyltransferase (Homo sapiens) (UniProt P50135). The settings on record: purified enzyme, MTase-Glo SAH luminescence; measured here: HNMT inhibition; at 40 µM; stronger effect = lower value. Put shortly: as §1
In test [4] the target is Nicotinamide N-methyltransferase (Homo sapiens) (UniProt P40261). The conditions noted are these: purified enzyme, MTase-Glo SAH luminescence; measured here: NNMT inhibition; at 40 µM; stronger effect = lower value. Put shortly:
as §1

The target in test [5] is Phenylethanolamine N-methyltransferase (Homo sapiens) (UniProt P11086). The conditions noted are these: purified enzyme, MTase-Glo SAH luminescence; measured here: PNMT inhibition; at 40 µM; stronger effect = lower value. Put shortly: as §1
% is set by controls: 0 for no effect and ±100 for the full control effect.

`CC(O)C(O)/C=C/C=C/C(=O)O[C@@H]1C=C2COC(=O)[C@]2(O)[C@@]2(C)CCCC(C)(C)C12` (stereo not given in full): the activity change, negative = inhibition is -0.122% in test [1]; -5.07% in test [2]; 2.25% in test [3]; -14.8% in test [4]; 0.187% in test [5].
With `Cn1c(=O)c2ccc(C(=O)NC3CCCCC3)cc2n2c(SCc3ccccc3)nnc12`, the activity change, negative = inhibition in test [1] came to 0.824%; in test [2], 3.46%; in test [3], 5.53%; in test [4] it was 0.097%; in test [5], 3.8%.
On the same counts, the results for `Cc1ccccc1NC(=O)N1Cc2c(sc3c2CCCC3)-n2cccc2C1c1ccc(F)cc1` (stereo not given) are 1.99%, 0.248%, 4.04%, -5.5% and 1.3%.
On the same counts, the results for `O=C(Nc1ccccc1)N1CCCC(C(=O)N2CCC(N3CCCC3=O)CC2)C1` (stereo not given) are 0.356%, -1.84%, -0.163%, -0.148% and 0.909%.
On the same counts, the results for `O=C(O)CCc1cc2ccoc2cc1O[C@@H]1O[C@H](CO)[C@@H](O)[C@H](O)[C@H]1O` are 7.31%, 7.75%, 9.09%, -5.01% and 5.31%.
Consider `COc1ccc(NC(=O)c2ccc(C(=N)N(C)C)cc2)c(C(=O)Nc2ccc(Cl)cn2)c1`, for which the activity change, negative = inhibition was -3.26% in test [1]; 3.74% in test [2]; -22.8% in test [3]; -9.81% in test [4]; -5.03% in test [5].
With `O=C(C[C@H]1NC(=O)c2ccccc2NC1=O)Nc1nc(-c2ccncc2)cs1`, the activity change, negative = inhibition in test [1] was -10.2%; in test [2], -7.03%; in test [3], -6.16%; in test [4] it was -35.6%; in test [5], -8.42%.
On the same counts, the results for `CC[C@H](C)NC(=O)c1sc(=S)n2c1[nH]c(=O)c1cc(Cl)ccc12` are -81.8%, -63.5%, -80.2%, -78.1% and -87%.
Regarding `CCN(CCN(C)C)C(=O)CNCc1cc(C(N)=O)ccn1`, the activity change, negative = inhibition in test [1] is 5.99%; in test [2] it was 7.97%; in test [3], 9.45%; in test [4] it was -1.78%; in test [5] it was 9.04%.
On the same counts, the results for `O=C(Cn1ccc2cc(S(=O)(=O)N3CCCCC3)ccc21)NCc1cccnc1` are 4.57%, 0.646%, 7.2%, 9.97% and 5.6%.
For `COC(=O)c1cc2n(n1)CC(C)(C(=O)NC1CCCCC1)N(c1ccccc1C)C2=O` (stereo not given) the same measures were 8.3%, 0%, 9.69%, 11.2% and 6.95%.
For `CCCn1c(=O)c2cc(Cl)ccc2n2c(SCC(=O)Nc3cc(Cl)ccc3OC)nnc12` the same measures were 1.48%, 0.99%, 6.08%, 4.44% and 1.29%.
On to `CSc1cccc(NC(=O)c2cc3n(n2)CC(C)(C(=O)NC2CCCCC2)N(C)C3=O)c1` (stereo not given), for which the activity change, negative = inhibition in test [1] came out at 3.51%; in test [2], 0%; in test [3], 0.262%; in test [4], 3.84%; in test [5], 0.188%.
For `O=S(=O)(NCCn1c(-c2ccccc2)nc2ccccc21)c1cc(F)ccc1F` the same measures were -6.72%, -4.04%, -0.998%, -15.5% and -3.34%.
On the same counts, the results for `O=C1NC2(CCN(Cc3cccc4ccccc34)C2)OCc2ccccc21` (stereo not given) are -25.4%, -9.49%, -5.3%, -15.7% and -15.1%.
Take `CO[C@H]1O[C@@H]2O[C@]3(C)CC[C@H]4[C@H](C)CC[C@@H]([C@H]1C)[C@@]24OO3`: the activity change, negative = inhibition in test [1] is 2.84%; in test [3] it was 9.59%.
Take `CC[C@H]1CN(C(=O)NC2CCCCC2)CC[C@H]1CC(=O)NCc1ccco1`: the activity change, negative = inhibition in test [1] is -8.24%; in test [2], -9.48%; in test [3], -4.54%; in test [4] it was -17.4%; in test [5], 5.72%.
For `O=C(NCc1ccc(Cl)cc1)[C@@H]1Cc2nc[nH]c2CN1Cc1cc2ccccc2o1` the same measures were -12.8%, -7.7%, -11.8%, -21.1% and -5%.
For `COc1ccccc1CNC(=O)C1(C)Cn2nc(-c3ccccc3)cc2C(=O)N1c1ccc(C)c(C)c1` (stereo not given) the same measures were 6.6%, 4.96%, 10.3%, 7.16% and -1.63%.
On the same counts, the results for `CC(C(O)c1ccccc1)N(C)CCOC(c1ccccc1)c1ccccc1` (stereo not given) are 1.33%, 18.3%, -15.4%, -11.8% and -1.91%.
On to `COCC(=O)N1CCC(Oc2ccccc2C(=O)N(C)Cc2ncccc2C)CC1`, for which the activity change, negative = inhibition was -0.147% in test [1]; -1.56% in test [2]; -1.53% in test [3]; -3.83% in test [4]; -18.8% in test [5].
For `CC1CCCN1c1ncnc2c1CN(c1ccccc1F)C(=O)CN2C` (stereo not given) the same measures were -9.29%, -11%, -8.26%, -22% and -10.3%.
With `c1nc2nc(Nc3ccc(N4CCOCC4)cc3)nc(NC3CCCCC3)c2[nH]1`, the activity change, negative = inhibition in test [1] was -22.1%; in test [2] it was -3.08%; in test [3] it was -28.8%; in test [4], -39.6%; in test [5] it was -9.84%.
Turning to `CCCN1C(=O)c2c(C(=O)NCCc3cccs3)ncn2CC1(C)C(=O)NCCC(C)C` (stereo not given), the activity change, negative = inhibition is -4.01% in test [1]; 0% in test [2]; -2.96% in test [3]; -5.59% in test [4]; -0.456% in test [5].
With `CN1CCc2cc(Nc3ncc(C4CC4)c(NCCCNC(=O)C4CCC4)n3)ccc2C1`, the activity change, negative = inhibition was -10.9% in test [2], -28.8% in test [4] and -9.68% in test [5].
On to `CC(=O)N1CCC(Cc2ccc(C(=O)N(C)Cc3cccnc3)cc2)CC1`, for which the activity change, negative = inhibition in test [1] was -1.56%; in test [2], -2.4%; in test [3], 1.38%; in test [4], -1.95%; in test [5], -1.61%.
For `COc1ccccc1CCN1C(=O)c2cc3ccccc3n2CC1(C)C(=O)NCc1ccccc1` (stereo not given) the same measures were -10.7%, 1.79%, -2.3%, -4.28% and -2.96%.
For `Cc1nc(N2CCCCC2)n(CC(=O)Nc2ccc(Br)cc2)c(=O)c1C`, the activity change, negative = inhibition is -4.69% in test [1]; -3.26% in test [2]; -4.12% in test [3]; -5.32% in test [4]; 1.02% in test [5].
In the case of `CCCCCCCC/C=C\CCCCCCCC(=O)NCCO`, the activity change, negative = inhibition was -4.78% in test [1]; 2.45% in test [2]; -2.09% in test [3]; -12.3% in test [4]; -5.04% in test [5].
Regarding `CCc1ccc(NC(=O)N2CCN(C)C3(CCC(=O)N(C)CC3)C2)cc1` (stereo not given), the activity change, negative = inhibition in test [1] is -1.31%; in test [2], -2.68%; in test [3] it was -0.547%; in test [4], -3.82%; in test [5], 0.372%.
For `Cc1occc1C(=O)N1CCC2(CC1)N=C(CC(C)C)NC2=O` the same measures were -1.75%, -1.89%, 0.064%, 0.383% and -0.241%.
